In PubChem BioAssay AID488969 (Vanderbilt High Throughput Screening Facility, 2010):
Whole data set: some 110,000 compounds, median “z-score” near -0.1, cut for the highest 2% near 2. The list shows a part of the results. The source made the active and inactive calls.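 The calls were made as follows: active = z-score in the third read window above 3 or below -3; inactive = the rest.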

The compounds below were run against Metabotropic glutamate receptor 8 (Rattus norvegicus) (UniProt P70579) (assay: rat mGluR8 modulators via GIRK flux, primary screen, cell-based, thallium flux, HTS (AID 488969)). Settings: HEK293 rat mGluR8, GIRK (G protein-gated inwardly rectifying potassium channel) thallium flux, FluoZin2; at 10 µM; stronger effect = higher value; submaximal glutamate (EC20) added with thallium.
Sequence of UniProt P70579 (P70579 whole entry, looked up): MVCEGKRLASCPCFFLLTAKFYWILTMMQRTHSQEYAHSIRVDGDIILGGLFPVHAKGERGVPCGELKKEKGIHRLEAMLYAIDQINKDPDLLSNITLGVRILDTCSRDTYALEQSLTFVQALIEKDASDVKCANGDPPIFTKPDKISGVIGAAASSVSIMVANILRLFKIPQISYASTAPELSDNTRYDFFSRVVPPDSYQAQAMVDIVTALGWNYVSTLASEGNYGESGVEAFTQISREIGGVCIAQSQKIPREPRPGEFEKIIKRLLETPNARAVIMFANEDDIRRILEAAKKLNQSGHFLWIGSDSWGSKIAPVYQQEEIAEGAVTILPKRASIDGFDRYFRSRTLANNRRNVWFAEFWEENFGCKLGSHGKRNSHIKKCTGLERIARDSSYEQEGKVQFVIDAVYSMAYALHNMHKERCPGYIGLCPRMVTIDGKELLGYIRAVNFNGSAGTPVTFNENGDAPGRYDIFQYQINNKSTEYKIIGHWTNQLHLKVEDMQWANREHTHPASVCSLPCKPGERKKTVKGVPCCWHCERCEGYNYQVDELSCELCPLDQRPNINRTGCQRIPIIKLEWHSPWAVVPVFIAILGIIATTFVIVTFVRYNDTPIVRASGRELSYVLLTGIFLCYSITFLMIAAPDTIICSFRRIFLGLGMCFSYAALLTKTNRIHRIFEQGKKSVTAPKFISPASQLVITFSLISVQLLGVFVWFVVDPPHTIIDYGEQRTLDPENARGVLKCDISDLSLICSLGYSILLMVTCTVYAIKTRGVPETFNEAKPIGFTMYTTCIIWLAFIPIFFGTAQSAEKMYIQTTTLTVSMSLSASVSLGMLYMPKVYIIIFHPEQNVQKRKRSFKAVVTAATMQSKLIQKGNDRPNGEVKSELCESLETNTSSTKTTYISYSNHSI

| Compound | z-score |
| --- | --- |
| COc1ccc(-n2c(O)c(/C=N/NS(=O)(=O)c3cc(C)ccc3C)c3ccccc3c2=O)cc1OC | -1 |
| CCOCC(=O)N1CCN(c2ccc([N+](=O)[O-])cc2)CC1 | -0.138 |
| Cn1nc([N+](=O)[O-])nc1Sc1ccc(C(C)(C)C)cc1 | 0.378 |
| CCc1c(C)nc2ncnn2c1N1CCC(C(=O)N2CCN(c3ccc(F)cc3)CC2)CC1 | 0.284 |
| O=C(Nc1ccccc1)N(CCc1ccncc1)C1CCCCC1 | 0.332 |
| Cn1ccnc1SCC(=O)Nc1ccccc1 | 0.326 |
| O=[N+]([O-])c1cccc(-c2nc(Oc3ccc(Cl)cc3)c3ccccc3n2)c1 | -0.621 |
| Cc1nn(-c2ccccc2)c(Cl)c1/C=C/C(=O)c1ccccc1 | 0.866 |
| Cc1ccc(CNC(=O)C23CN(Cc4ccccc4)CC2C(c2ccc([N+](=O)[O-])cc2)=NO3)cc1 (stereo not drawn) | -0.127 |
| Nc1c(-c2ccccc2)nc(Cl)nc1-c1ccccc1 | -0.494 |
| C=CCn1c(CCCOc2ccc(Cl)cc2Cl)n[nH]c1=S | 0.176 |
| CC(OC(=O)CCC(=O)c1cccs1)C(=O)Nc1ccc(Cl)cn1 (stereo not drawn) | -0.131 |
| Cc1c(C)[n+](=O)c(-c2ccc(F)cc2)c(C)n1[O-] | 1.42 |
| CCN(CC)S(=O)(=O)c1ccc(C(=O)Nc2ccc(OCC(=O)N3CCOCC3)cc2)cc1 | -1 |
| C(=C\c1ccco1)/C1=NN(c2ccccc2)C(c2ccco2)C1 (stereo not drawn) | -0.0665 |
| CCCCNC(=O)C1c2ccccc2C(=O)N(c2ccc(OC)cc2)C1c1ccc(OC)cc1 (stereo not drawn) | 0.655 |
| Cc1cccc(C(=O)Nc2ncc(CN3CCOCC3)s2)c1 | 0.554 |
| CCc1ccc2oc(-c3cccc(N)c3)nc2c1 | -0.135 |
| OCCc1ccc(-c2ccc(Cl)cc2)o1 | -1.18 |
| O=C(O)c1cccnc1SC1CC(=O)N(CCc2ccccc2)C1=O (stereo not drawn) | 1.34 |
| O=[N+]([O-])c1cc(S(=O)(=O)N2CCCC2)ccc1NCCc1ccccc1 | -0.133 |
| CN(C)S(=O)(=O)c1cccc(N=c2scc(-c3ccc4c(c3)NC(=O)CO4)n2CC2CCCO2)c1 (stereo not drawn) | 0.0413 |

| Compound | z-score |
| --- | --- |
| CC(NCc1ccccc1)C1COc2ccccc2O1 (stereo not drawn) | 0.0779 |
| COC(=O)C1=C(C)N(c2cccc(C)c2)C(=O)/C1=C\c1cccs1 | -0.334 |
| CC(C)c1ccc(-c2nc(N3CCCCCC3)nc3n[nH]c(N)c23)cc1 | -0.0505 |
| CCOC(=O)C1CCc2sc(N)c(C#N)c21 (stereo not drawn) | 2.38 |
| O=C(NC(NCCCN1CCOCC1)(C(F)(F)F)C(F)(F)F)C1CCCCC1 | 0.0382 |
| CC(C)NC(=O)c1cc(-c2ccco2)on1 | -0.291 |
| COc1ccc(-c2sc(NC(=O)c3ccc(C)cc3)nc2-c2ccc([N+](=O)[O-])cc2)cc1 | 0.0824 |
| COCCn1c(C)cc(C(=O)COC(=O)c2ccc3c(c2)NC(=O)CS3)c1C | -0.422 |
| COc1ccc(CCNS(=O)(=O)c2ccc(C(=O)NCc3ccco3)cc2)cc1OC | 0.0857 |
| CCc1ccc(C(=O)N2CCC(c3nc4ccccc4s3)CC2)cc1 | -0.807 |
| CC(C)NC(=S)Nc1ccc(S(=O)(=O)Nc2ncccn2)cc1 | -0.142 |
| Brc1ccccc1OCCCCCN1CCCC1 | 0.0397 |
| COc1ccc(N(CC(=O)Nc2cc(C(=O)O)ccc2C)S(=O)(=O)c2c(C)noc2C)cc1 | -0.209 |
| O=C(NCC(=O)N(Cc1cccs1)C(C(=O)NC1CCCCC1)c1cccnc1)c1ccco1 (stereo not drawn) | -0.0836 |
| CCOc1cccc(CNn2cnnc2)c1OCc1ccccc1 | -0.295 |
| COC(=O)/C(=C/c1cccnc1)NC(=O)c1ccccc1 | -0.0328 |
| Cc1c(C(=O)Nc2nccs2)sc2nc(-c3cccs3)cc(C(F)(F)F)c12 | 0.481 |
| O=C(CCC(=O)OCC(=O)c1ccc(Br)cc1)NC1CCCCC1 | 0.0955 |
| O=C(Nc1ccccc1C(=O)N1CCOCC1)C1CC(=O)N(C2CCCC2)C1 (stereo not drawn) | 0.382 |
| Clc1ccc2nc(CSc3nncn3-c3ccccc3)cn2c1 | 0.296 |
| CCOC(=O)c1sc(/N=C/c2c(C)[nH]n(-c3ccccc3)c2=O)c(C#N)c1C | -0.156 |
| CCOC(=O)c1c(CN2CCOCC2)n(-c2ccccc2)c2cc(Br)c(O)c(CN(C)C)c12 | -0.781 |

| Compound | z-score |
| --- | --- |
| CCOc1c2ccc(C(=O)NCC34CC5CC(CC(C5)C3)C4)cc2nn1CC | -0.279 |
| CC(=O)NC1=NN(C(C)=O)C2(S1)C(=O)N(C(C)C)c1ccc(C)cc12 (stereo not drawn) | -0.286 |
| COC(=O)C(C)n1cnc2c(nnn2-c2cccc(Cl)c2)c1=O (stereo not drawn) | -0.535 |
| CSCCC(NC(=O)c1cccc(S(=O)(=O)N2CCOCC2)c1)C(=O)Nc1ccc(F)cc1 (stereo not drawn) | 0.0957 |
| CC1=C(C(=O)OC(C)C)C(c2ccc(F)cc2)NC(=O)N1 (stereo not drawn) | -0.631 |
| Cc1ccc2nc(Nc3ccccc3)c(/C=N/O)c(=O)n2c1 | -0.745 |
| CCNC(=O)CN(C1CCCCC1)S(=O)(=O)c1ccc(F)cc1 | -0.185 |
| CC(=O)c1c(N2CCN(C)CC2)[nH]c(-c2ccccc2)nc1=S | 0.167 |
| COCCN(C(=O)C1CCC1)c1nnc(-c2cccnc2)s1 | 0.0298 |
| Clc1ccc(-n2nnnc2Sc2ncnc3sccc23)cc1 | -1.84 |
| CCOC(=O)c1c(CN2CCCCC2)n(C)c2cc(Br)c(O)c(CN(C)C)c12 | -0.436 |
| Cc1ccc(N=C(NOC(=O)c2ccccc2)c2nonc2N)c(C)c1 | -0.261 |
| c1ccn2c(SCc3cn4ccsc4n3)nnc2c1 | 1.12 |
| C=CCn1c(COc2cccc3ccc(C)nc23)nnc1SCC(N)=O | 0.223 |
| O=S(=O)(c1ccc(Cl)cc1Br)N1CCCCC1 | -0.285 |
| Cc1ccccc1NC(=O)CN1CCC(n2nnc3ccccc32)CC1 | 0.471 |
| O=C(NCCCN1CCOCC1)c1ccc(CS(=O)(=O)Cc2ccc(Cl)cc2)o1 | -0.32 |
| Cn1cccc1C(=O)NC(=O)CSc1cccc[n+]1[O-] | 0.315 |
| C/C(=C\C(=O)O)C12CC3CC(CC(C3)C1)C2 | -0.203 |
| C=CCn1c(COc2ccc(Cl)cc2)nnc1SCC(=O)N/N=C/c1cccc(O)c1 | -0.279 |
| COCCn1c(SCC(=O)NCc2ccco2)nnc1-c1c[nH]c2ccccc12 | -0.298 |
| COc1ccc2c(C)c(C(=O)NCC(C)O)oc2c1OC (stereo not drawn) | -0.0493 |

| Compound | z-score |
| --- | --- |
| Cc1nc2c(cc1C(=O)N/N=C/c1ccc(O)c(O)c1)c(=O)n(C)c(=O)n2C | -0.121 |
| COC(=O)CNC(=O)CNC(=O)c1nn(-c2ccc(OC)c(Cl)c2)c(=O)c2ccccc12 | -0.177 |
| C=CCNCCOc1cccc(Br)c1 | -0.00148 |
| O=C(CCNC(=O)c1ccc(Br)o1)NCc1ccc(Cl)cc1 | 0.592 |
| CCOc1ccc(NC(=O)Cn2nnc(-c3ccccc3F)n2)cc1 | active: 3.4 |
| CCCCN1C(=O)NC(NS(=O)(=O)c2ccc(N)cc2)(C(F)(F)F)C1=O (stereo not drawn) | 0.213 |
| Cc1cccc(-c2nc3c(c(SCC(=O)N4CCOCC4)n2)CCCC3)c1 | -0.678 |
| Cc1ccc(CCN2CC(C(=O)NCCCN3CCOCC3)CC2=O)cc1 (stereo not drawn) | -0.517 |
| CS(=O)(=O)N1CCN(C(=O)CCC2CCCC2)CC1 | -0.239 |
| CCN(C(=O)c1cccc(F)c1)c1ccccc1C | -0.249 |
| CCc1ccc2[nH]c(=O)c(CN(CCN(C)C)C(=O)Nc3ccccc3OC)cc2c1 | 0.133 |
| Nn1cnnc1N/N=C\c1ccc(-c2ccccc2[N+](=O)[O-])o1 | -0.277 |
| O=C(Cc1cccs1)N/N=C/c1ccco1 | 0.212 |
| COc1ccc(N2C(=O)C3C4C=CC(C4)C3C2=O)nn1 (stereo not drawn) | -0.972 |
| Nc1ccccc1N1CCOCC1 | 0.0932 |
| Cc1[nH]nc(SCC(=O)NCc2ccccc2)c1[N+](=O)[O-] | 0.0569 |
| C=CCN1C(=NC(=O)CCCC(=O)O)SC2CS(=O)(=O)CC21 (stereo not drawn) | 1.68 |
| CCc1ccccc1N(CC)C(=O)CCc1nc(-c2ccc(C)cc2)no1 | -0.0345 |
| Cn1c(=O)c2cc(S(=O)(=O)NC(C(=O)Nc3cccnc3)c3ccccc3)ccc2n(C)c1=O (stereo not drawn) | 0.112 |
| COc1cc(C(C(=O)NC(C)(C)C)N(Cc2ccc3c(c2)OCO3)C(=O)c2cnccn2)cc(OC)c1OC (stereo not drawn) | 0.387 |
| COc1ccc2c(c1)C(C1=C(O)CC(C)(C)CC1=O)C1=C(CC(C)(C)CC1=O)O2 (stereo not drawn) | 0.577 |
| O=C(CC1CCCCC1)N1CCCC(c2nc(-c3ccc(S(=O)(=O)N4CCCC4)cc3)no2)C1 (stereo not drawn) | -0.761 |

| Compound | z-score |
| --- | --- |
| CSc1nc2ccccc2cc1/C=C(\C#N)c1cccc(Cl)c1 | 0.938 |
| CCOc1ccccc1CN1CCC(O)CC1 | -0.206 |
| CC1(C)CC2(CCO1)N1CC3(C)CN2CC(C)(C1)C3O (stereo not drawn) | 0.0449 |
| O=C(Nc1ccccc1)NC1(C(=O)NCc2cccs2)CCCCC1 | 0.44 |
| COCCOc1ccc(C(F)(F)F)cc1NC(=O)c1ccc(F)cc1 | 0.0245 |
| O=C(NCc1ccccc1)C1CCN(S(=O)(=O)c2cc([N+](=O)[O-])ccc2Cl)CC1 | -0.106 |
| CC(=O)c1cnc2c(-c3ccccc3)c(C)nn2c1C | 0.132 |
| Cc1ccc2cc3c(N)c(C(=O)Nc4c(C)[nH]c(=O)[nH]c4=O)sc3nc2c1 | 0.275 |
| Cc1cc(NC(=O)c2cccc(S(=O)(=O)N(C)C)c2)n(-c2ccccn2)n1 | -0.588 |
| CCOC(=O)c1nnc(-c2cccs2)nc1Oc1ccc(Cl)cc1 | 0.547 |
| CN(Cc1ccc(F)cc1)C(=O)COc1ccccc1-c1ccccc1 | -0.241 |
| CCOC(=O)c1sc(Nc2nc3ccc(OC)cc3s2)cc1C | -0.193 |
| Cc1cc(C)cc(-n2nc(C)cc2N)c1 | 0.834 |
| CC(=O)Nc1ccc(S(=O)(=O)Nc2nc3ccccc3nc2Nc2ccc(S(N)(=O)=O)cc2)cc1 | -0.462 |
| O=C(CCn1cnc2ccccc2c1=O)Nc1ccc(S(=O)(=O)N2CCCC2)cc1 | -1.13 |
| O=C(Nc1nc2ccc(Oc3ccccc3)cc2s1)c1cc([N+](=O)[O-])ccc1N1CCOCC1 | -0.0951 |
| O=C(NCCc1c[nH]c2ccccc12)c1cccc(S(=O)(=O)Nc2ccccc2Cl)c1 | -0.649 |
| CCc1ccc(NC(=S)N(CCN2CCCCC2)Cc2ccco2)cc1 | -0.468 |
| CN(C)CCCNc1cc(Cl)c(S(=O)(=O)N2CCCCC2)cc1C(=O)O | -0.126 |
| CSc1ccccc1C(=O)NCCSc1ccccc1 | -0.165 |
